Molecules are shown by their SMILES. About 540 (0.36%) of roughly 150,000 compounds showed an effect of 50% or more. The list shows a part of the results.

The test deals with Plasmodium falciparum. The test is described as follows: Primary screen in NF54 nanoGlo assay, in single point, at 2uM, 72h; a lower Z score goes with more inhibition. Type of test: functional, Erythrocyte. The following applies: timepoint 72 hour.
For the compound `CCCS(=O)(=O)NC1CCN(c2cc(-c3ccccc3)c3ccccc3n2)CC1`, the “% Inhibition” value is 2% and the Z score is listed as -0.42.

For the compound `CCC(CC)n1nc(C(=O)N2CC[C@H]2c2ccccc2F)cc1C`, the “% Inhibition” value is 0% and the Z score is reported as 0.05.

As for `Cc1n[nH]c(C)c1CNC(=O)CC1CCCCC1C` (centres undefined), the “% Inhibition” value is given as -12% and the Z score stood at 2.1.

With `COc1ccc([C@H](Cc2ccncc2)NCCCC2(O)CCC2)cc1`, the “% Inhibition” value is reported as -3% and the Z score turned out to be 0.54.

Regarding `COc1ccc(C(=O)N(CC(=O)Nc2nc(-c3ccccc3)cn2-c2cccc(Cl)c2)Cc2ccccc2)cc1`, the “% Inhibition” value is reported as -8% and the Z score is on record as 0.96.

With `CCN(CCn1cccn1)Cc1ccn(CC)n1`, the “% Inhibition” value is on record as -13% and the Z score worked out at 1.16.

On to `CC(OCC1CCCO1)C(=O)N1CC(O)(c2ccc(Cl)cc2)C1` (centres undefined), for which the “% Inhibition” value is -4% and the Z score amounted to 0.85.

As for `Cn1ccnc(N2CC(Cc3ccc(F)c(F)c3)C2)c1=O`, the “% Inhibition” value is on record as -6% and the Z score amounted to 0.98.

Regarding `O=C(Nc1ccccc1CN1C(=O)CCC1=O)NC1CCCCCCC1`, the “% Inhibition” value is 0% and the Z score is given as 0.04.

`Cc1nc2[nH]c(-c3ccc4ccccc4c3)cc(=O)n2n1`: the “% Inhibition” value is reported as -4% and the Z score came out at 0.6.

With `N#Cc1ccc(C(=O)N2C3CCC2CC(n2nccn2)C3)cc1` (centres undefined), the “% Inhibition” value is listed as -12% and the Z score was 2.21.

Regarding `CNC(=O)C[C@H](C)N(C)C(=O)c1ccc(-c2ccc(C)nc2C)cc1`, the “% Inhibition” value is reported as -3% and the Z score turned out to be 0.55.

With `Cc1cc(NC(=O)C2CCOCC2)n(-c2cc(C(F)(F)F)ccc2Cl)n1`, the “% Inhibition” value was determined as 1% and the Z score was -0.07.

For the compound `CCC(CC)(CC)NC(=O)C[C@H]1CCS(=O)(=O)C1`, the “% Inhibition” value was -2% and the Z score is listed as 0.2.

Regarding `C[C@H](O)C(=O)NCCc1ccc(C(F)(F)F)cn1`, the “% Inhibition” value is -6% and the Z score was 1.14.

As for `O=S(=O)(c1ccc(F)cc1)N1CCC[C@](CC2CC2)(c2noc(C3CCOCC3)n2)C1`, the “% Inhibition” value is listed as -10% and the Z score worked out at 1.35.

In the case of `COc1cc2nc(N(C)C)c(CN(CCc3ccc(F)cc3)C(=O)c3cc(C)nn3C)cc2c(OC)c1OC`, the “% Inhibition” value is given as 0% and the Z score was found to be 0.02.

Take `Cn1ccc(C(=O)Nc2cccc(-c3ccc4c(c3)CCO4)c2)cc1=O`: the “% Inhibition” value was found to be 8% and the Z score is on record as -0.95.

In the case of `Cc1cc(C(=O)N2C[C@@H]3NC(=O)CN(C)C(=O)c4ccc(C)c(c4)Oc4cccc(c4)CO[C@H]3C2)n(C)n1`, the “% Inhibition” value is reported as -6% and the Z score stood at 0.81.

For the compound `COCC1(CNc2ncc(C#N)c(N)n2)CCC1`, the “% Inhibition” value is 4% and the Z score is listed as -0.82.

As to `CCn1c(=O)c(C(=O)N2CCN(c3ccccc3F)CC2)nc2cccnc21`, the “% Inhibition” value is reported as -16% and the Z score is reported as 1.81.

On to `Cc1nc(C)c(-c2cnn(CCC(C)C)c2)[nH]1`, for which the “% Inhibition” value is on record as -1% and the Z score worked out at 0.12.

Turning to `COCCC(=O)N1CC[C@H](c2nc(CCOCc3ccccc3)no2)C1`, the “% Inhibition” value was 0% and the Z score is reported as 0.04.

Take `CCN1CCN(C(=O)c2cnc(-c3ccc(F)cc3)nc2N(C)C)CC1`: the “% Inhibition” value came to 3% and the Z score is given as -0.5.

Take `COC(=O)c1ccc2c(c1)[n+](C)c(C)n2C1CCCCC1`: the “% Inhibition” value was -16% and the Z score came out at 3.09.

`CN(C)[C@H](c1ccccc1)c1nc(-c2cccs2)no1`: the “% Inhibition” value was -7% and the Z score came out at 0.86.

For `Cc1n[nH]c(-c2nc(CC(N)=O)nn2C(C)(C)C)c1Cl`, the “% Inhibition” value is listed as -7% and the Z score came out at 1.41.

For `CO[C@H]1CN(Cc2csc(C)n2)C[C@@H]1O`, the “% Inhibition” value was -17% and the Z score is given as 1.68.

Take `CO[C@H]1CCN(c2ncc(Cl)cn2)C1`: the “% Inhibition” value is given as -9% and the Z score worked out at 1.05.

Take `Cc1nc(C(F)(F)F)c(CN2CCC3(CC2)C[C@@H]3C(=O)O)s1`: the “% Inhibition” value is on record as -2% and the Z score is 0.36.

As for `O=C(NCc1ccccc1Cl)C1[C@@H]2C=C[C@@]3(CN(Cc4cccnc4)C(=O)[C@H]13)O2` (some centres undefined), the “% Inhibition” value is reported as -20% and the Z score amounted to 2.68.

`COc1ccccc1-c1n[nH]c(=O)n1-c1cccc(C)c1`: the “% Inhibition” value is on record as 7% and the Z score is listed as -1.14.

Regarding `CCCn1c(C)cnc1[C@H]1CCN(C(=O)NCCC(=O)OCC)C1`, the “% Inhibition” value is recorded as -10% and the Z score stood at 1.44.

Consider `CNc1nc(C)c(C(=O)N2CCN(CC3CC3)[C@@H]3CS(=O)(=O)C[C@@H]32)s1`, for which the “% Inhibition” value was 2% and the Z score was -0.27.

Consider `O=C(c1csc(-c2ncc[nH]2)n1)N1CCCC[C@@]12CCOC2`, for which the “% Inhibition” value is given as -9% and the Z score is given as 1.52.

For the compound `Cc1nnc(N2CC3OCCN(Cc4ccccc4)C3C2)s1` (centres undefined), the “% Inhibition” value is -5% and the Z score amounted to 0.92.

As to `CC(C)(C)ONC(=O)Nc1ccn(CC(F)(F)F)n1`, the “% Inhibition” value is listed as -5% and the Z score is recorded as 0.89.

Consider `CCc1nccn1CCC(=O)N[C@@H](C)c1n[nH]c(C)n1`, for which the “% Inhibition” value was -3% and the Z score is recorded as 0.31.

Take `COCc1nc(N2CCC(c3n[nH]cc3C)CC2)cc([C@H]2C[C@H](N)C2)n1`: the “% Inhibition” value came out at 9% and the Z score is listed as -1.69.

For the compound `Cc1ccccc1S(=O)(=O)N1CCN(C(=O)N2C[C@H]3C[C@H](C2)[C@H]2CCCC(=O)N2C3)CC1`, the “% Inhibition” value was -1% and the Z score amounted to 0.27.

With `CN(Cn1c(=O)n(C)c2ccccc21)[C@H]1CCS(=O)(=O)C1`, the “% Inhibition” value was -8% and the Z score amounted to 1.12.

Consider `CCOC(=O)N1CCC(C)(CN2CCS(=O)(=O)C[C@@H](C)C2)CC1`, for which the “% Inhibition” value is reported as -13% and the Z score is given as 1.46.

The record behind these values is ChEMBL document CHEMBL4888484, “Replenishing the malaria drug discovery pipeline: Screening and hit evaluation of the MMV Hit Generation Library 1 (HGL1) against asexual blood stage Plasmodium falciparum ,using a nano luciferase reporter read-out” (2022).
